Some of the results follow.
The molecules below were run on T1, C. trachomatis L2/434/Bu expressing GFP (CTL2-GFP). Settings: total inclusion area; 28.5 h, 10 µM; inhibitor.
T1 construct: L2/434/Bu GFP intracellular growth in HeLa cells
Parameters: species or system HeLa; C. trachomatis total inclusion area by high-content imaging, normalised to DMSO
In short: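 Host cell viability was gauged from Hoechst-stained nuclei counts, while chlamydial growth was taken from total inclusion area and inclusion number per well. Cells were fixed and imaged by high-content microscopy once bulk GFP and resorufin fluorescence had been measured.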
With O=S(=O)(Nc1nnn[nH]1)c1cccc(C(F)(F)F)c1 [CBK062377] the “% of control remaining” value was 103.769. Cc1ccc2nc(-c3ccc4c(c3)CC(C)N4S(C)(=O)=O)cn2c1 (stereo not shown) [CBK285184] was tested, and the “% of control remaining” value was 89.2205. In the case of O=C(O)CCc1nc2[nH]c(C(F)F)cc(=O)n2n1 [CBK286880], the “% of control remaining” value is reported as 87.5929. c1ccc(-c2nnc(-c3ccco3)c(-c3ccco3)n2)cc1 [CBK286196] was tested, and the “% of control remaining” value was 138.499. With COc1ccc(CN2C(=O)CC3(C2=O)C(=O)N(C)c2ccccc23)cc1OC (stereo not shown) [CBK075450] the “% of control remaining” value was 91.791. For CC(C)C(=O)N1CC2(CCN(Cc3ncc[nH]3)CC2)c2ccccc21 [CBK126731], the “% of control remaining” value was 76.61. In the case of COc1ccc(CCNC(=O)CSC(C)C(=O)O)cc1 (stereo not shown) [CBK297493], the “% of control remaining” value is reported as 104.106. In the case of CC(=O)Nc1ccc(S(=O)(=O)NC2(C(F)(F)F)NC(=O)N(c3ccc(Cl)cc3)C2=O)cc1 (stereo not shown) [CBK267689], the “% of control remaining” value is reported as 121.228. In the case of COc1ccc(OC(=O)c2cc(S(=O)(=O)N3CCCCCC3)ccc2Cl)cc1 [CBK264562], the “% of control remaining” value is reported as 110.864. Cc1ccc2nc(SCC(=O)Nc3ccccc3Br)c(C#N)cc2c1 [CBK068169] was tested, and the “% of control remaining” value was 91.4327. In the case of O=C(NO)c1nccnc1-c1ccc(COc2ccccc2)cc1 [CBK050841], the “% of control remaining” value is reported as 102.191. With O=C(CN1CCC(Oc2nccnc2OCc2ccc(Cl)c(Cl)c2)CC1)Nc1ccccc1 [CBK153783] the “% of control remaining” value was 69.5433. In the case of O=C(N/N=C/c1ccc(OC(=O)c2ccc([N+](=O)[O-])cc2)cc1)c1cccnc1 [CBK262146], the “% of control remaining” value is reported as 105.112. In the case of Cc1ccc(N2C(=O)CC(Sc3ncccc3C(=O)O)C2=O)c(C)c1 (stereo not shown) [CBK269377], the “% of control remaining” value is reported as 62.6199. With COc1ccc(S(=O)(=O)N2CCC(C(=O)NC3(C(=O)O)CCCCC3)CC2)cc1OC [CBK295646] the “% of control remaining” value was 104.535. With CCOc1ccnc(N2CCN(C(=O)CCc3ccsc3)CC2)n1 [CBK304942] the “% of control remaining” value was 94.6218. In the case of CCC(=O)N1CCCc2cc(C(O)CN3CCN(c4cccc(OC)c4)CC3)ccc21 (stereo not shown) [CBK286476], the “% of control remaining” value is reported as 75.0974. In the case of O=C(c1c[nH]c(=O)n(-c2ccc(F)cc2)c1=O)N1CCc2ccccc21 [CBK287554], the “% of control remaining” value is reported as 104.811. For Cc1c(NC(=O)COc2ccc([N+](=O)[O-])cc2)cccc1-c1nc2ncccc2o1 [CBK263912], the “% of control remaining” value was 91.7627. CCC1CC(C(F)(F)F)n2ncc(C(=O)O)c2N1 (stereo not shown) [CBK286893] was tested, and the “% of control remaining” value was 98.9971. CCONC(=O)c1cc(-c2ccccc2C)nc2c1cnn2C(C)C [CBK304048] was tested, and the “% of control remaining” value was 33.0388. For O=C(O)C1C2CCC(C2)C1C(=O)NCCCCc1ccccc1 (stereo not shown) [CBK286967], the “% of control remaining” value was 131.557. With Cc1ccc(OCC(O)CNC(=O)c2ccccc2C(=O)O)cc1 (stereo not shown) [CBK264778] the “% of control remaining” value was 105.433. With CCN1CCN(C(=O)c2c[nH]c3ccccc23)CC1 [CBK200245] the “% of control remaining” value was 95.298. With O=C(c1ccccc1F)N1CCN(C(=O)[C@@H]2C[C@@H]3C=C[C@H]2C3)CC1 [CBK282011] the “% of control remaining” value was 96.1032. For CN(C)/C=N/c1nc2c(nc(Br)n2C2CC(O)C(CO)O2)c(=O)[nH]1 (stereo not shown) [CBK201319], the “% of control remaining” value was 77.4693. CCn1c(C)nc2cc(NC(=O)Cn3cc(C(=O)NC4CCCCC4)ccc3=O)ccc21 [CBK286095] was tested, and the “% of control remaining” value was 103.221. With CC(=O)N1CCc2cc(NC(=O)Cn3ccnc3C(C)C)ccc21 [CBK281471] the “% of control remaining” value was 108.088. In the case of CC(=O)Nc1nnc(SCC(=O)NCc2ccc3c(c2)OCO3)s1 [CBK287626], the “% of control remaining” value is reported as 93.6283. With O=C(Nc1cccc(-c2nnc3n2CCCCC3)c1)[C@@H]1CCCN1C(=O)c1cccs1 [CBK297090] the “% of control remaining” value was 98.7085. For O=C(CC1Nc2ccccc2NC1=O)Nc1cccc(C(F)(F)F)c1 (stereo not shown) [CBK262510], the “% of control remaining” value was 107.185. For CC1(C)CCCN(C(=O)CCn2ccc3ccncc32)C1 [CBK285173], the “% of control remaining” value was 91.8393. For O=C(NCCN1CCOCC1)c1ccc(NS(=O)(=O)c2ccccc2)cc1 [CBK270118], the “% of control remaining” value was 107.172. Cc1noc(/C=C\c2cc(C)n(-c3ccc(C(=O)O)cc3)c2C)c1[N+](=O)[O-] [CBK268862] was tested, and the “% of control remaining” value was 96.1346. In the case of O=C(CCc1ccc(O)c(O)c1)NNC(=S)Nc1ccc(F)cc1F [CBK267041], the “% of control remaining” value is reported as 88.6803. In the case of Cc1cc(C(F)(F)F)nc2c(OCCOc3nccnc3N3CCNCC3)cnn12 [CBK024195C], the “% of control remaining” value is reported as 102.79. In the case of O=C(O)C1CC=CCC1C(=O)NCc1ccncc1 (stereo not shown) [CBK265481], the “% of control remaining” value is reported as 85.1315. COc1cc(-c2nccnc2NCc2ccc(OC(F)(F)F)cc2)cc(OC)c1OC [CBK038063] was tested, and the “% of control remaining” value was 101.214. O=C(c1ccc(-c2ccc(F)cc2)o1)N1C[C@H]2CC[C@](O)(c3ccc(F)cc3)[C@H]2C1 [CBK286415] was tested, and the “% of control remaining” value was 6.511. c1ccc(-c2nc3sc4c(ncn5cnnc45)c3c3c2CCC3)cc1 [CBK269566] was tested, and the “% of control remaining” value was 86.1494. In the case of O=C(O)c1cc(S(=O)(=O)N2CCOCC2)ccc1F [CBK268398], the “% of control remaining” value is reported as 76.872. With CC(C)S(=O)(=O)N1C2CCC(C2)[C@@H]1COc1ccc(F)cc1 (stereo partly shown) [CBK285292] the “% of control remaining” value was 62.4272. COc1ccc(OC)c(C2=NO[C@@](CC(=O)O)(C(=O)NC3CCCCC3)C2)c1 [CBK286672] was tested, and the “% of control remaining” value was 64.0995. For O=C(O)c1cc(NC(=O)c2ccc3c(c2)C(=O)N(Cc2cccnc2)C3=O)cc(C(=O)O)c1 [CBK266761], the “% of control remaining” value was 98.1163. For CC(C(=O)Nc1cccc(N2CCNCC2)c1)c1ccccc1 (stereo not shown) [CBK004770T], the “% of control remaining” value was 95.7347. For O=C(NCC(c1ccccc1)c1ccccc1)N1CCN(Cc2ccccc2)CC1 [CBK155651], the “% of control remaining” value was 106.134. With CS(=O)(=O)c1ccc(-c2nccnc2NCc2cccnc2)cc1 [CBK036977] the “% of control remaining” value was 81.4841. For N#CCCN(C(=O)Nc1ccccc1Cl)C1CCCCC1 [CBK156366], the “% of control remaining” value was 96.2251. For COc1ccc2cc(C(=O)NCCn3ccnc3C)n(C)c2c1 [CBK282544], the “% of control remaining” value was 115.007. COc1ccc(Br)cc1S(=O)(=O)Nc1c(C(=O)Nc2ccc(F)cc2)[nH]c2ccccc12 [CBK050095] was tested, and the “% of control remaining” value was 84.3788. CCN1CCN(Cc2c(O)ccc3c(=O)c(Oc4ccccc4Cl)c(C(F)(F)F)oc23)CC1 [CBK266627] was tested, and the “% of control remaining” value was 112.405. With CC1=NNC(=O)C1Cc1c(Cl)cccc1Cl (stereo not shown) [CBK067754] the “% of control remaining” value was 101.436. For COCCNc1nc(-c2ccc(N3CCOCC3)cc2)ccc1C(=O)N1CCN(C)CC1 [CBK105943], the “% of control remaining” value was 104.654. Cc1cc(-c2cn3cc(C(=O)NCCCCO)nc3c(=O)n2C)c(C)o1 [CBK307037] was tested, and the “% of control remaining” value was 21.8631. In the case of COc1ccc(C(=O)N2Cc3ccccc3C2)c(OC)n1 [CBK200317], the “% of control remaining” value is reported as 94.8939. For Cc1cc2ncc3c(n2n1)CC1CCC3N1C(=O)CCn1cccc1 (stereo not shown) [CBK283157], the “% of control remaining” value was 98.4161. In the case of CCSc1nc(=O)c2c(n1C)NC(=O)CC2c1ccc(OC)cc1 (stereo not shown) [CBK307542], the “% of control remaining” value is reported as 98.8321. With O=C(O)CC(NCc1ccccc1)C(=O)Nc1ccccc1Br (stereo not shown) [CBK267118] the “% of control remaining” value was 112.243. In the case of CCOC(=O)C1CCCN(Cc2c[nH]nc2-c2ccc(OC)cc2F)C1 (stereo not shown) [CBK307304], the “% of control remaining” value is reported as 66.7989. With O=C(NC1CCCc2c1cnn2-c1ccc(F)cc1)C1CC1 (stereo not shown) [CBK283928] the “% of control remaining” value was 109.592. With CSCCCNC(=O)c1ccc(-c2ccoc2)nc1 [CBK156262] the “% of control remaining” value was 98.9785. In the case of COc1ccccc1CN[C@@H]1CCC[C@H]1Cc1cc(C)no1 [CBK283005], the “% of control remaining” value is reported as 93.7357. With NCCNc1cccc2c1ccn2S(=O)(=O)c1ccccc1 [CBK028470C] the “% of control remaining” value was 68.392. With O=C(N[C@H]1CO[C@H]2[C@@H]1OC[C@@H]2Nc1nccc(-c2cccs2)n1)c1cccs1 [CBK289518] the “% of control remaining” value was 58.1045. COc1ccc(C2(O)CCN(CC(O)c3ccc4c(c3)CCC4)CC2)cc1 (stereo not shown) [CBK286334] was tested, and the “% of control remaining” value was 89.1738. For C(=C\CSc1nc2ccccc2[nH]1)/CSc1nc2ccccc2[nH]1 [CBK263090], the “% of control remaining” value was 93.0415. Nc1nc(SCC(=O)NCCCO)nc2sc3c(c12)CCC3 [CBK264952] was tested, and the “% of control remaining” value was 99.5832. With CCN(CC)c1ccc(NC(=O)c2cccc(OC)c2OC)c(C)c1 [CBK097801] the “% of control remaining” value was 108.622. For Cc1nc(CN2CCCN(C(=O)c3cccc(C#N)c3)CC2)cs1 [CBK305363], the “% of control remaining” value was 71.3268. For COc1cc(OC)nc(NC(=O)CN2CCN(c3ccc(F)cc3)CC2)n1 [CBK267259], the “% of control remaining” value was 129.958. CC(C)(C)OC(=O)NCc1ccc(-c2cc(NC3CCCCC3)ncn2)cc1 [CBK090898] was tested, and the “% of control remaining” value was 109.473. With CC(C)Nc1nc2ccccc2nc1SCCOc1ccccc1 [CBK103668] the “% of control remaining” value was 79.2743. With C=CCn1c(C)c(CN2CCc3nc(C)[nH]c(=O)c3C2)c2ccccc21 [CBK282375] the “% of control remaining” value was 86.3732. In the case of COc1cc(/C=C2/SC(=O)NC2=O)cc(I)c1O [CBK100075], the “% of control remaining” value is reported as 83.2764. With CCN(CC)c1ccc(NC(=O)c2cc(-c3cccnc3)cnc2NCCN2CCOCC2)cc1 [CBK126566] the “% of control remaining” value was 87.0024. For C[S+]([O-])CCC(NS(=O)(=O)c1ccccc1)C(=O)O (stereo not shown) [CBK268267], the “% of control remaining” value was 91.2075. In the case of O=C(O)c1cccc(-n2c(S)nnc2-c2cnccn2)c1 [CBK269252], the “% of control remaining” value is reported as 85.2504. For COc1ccc(N(CC(=O)N2CCN(Cc3ccc4c(c3)OCO4)CC2)S(C)(=O)=O)cc1Cl [CBK265258], the “% of control remaining” value was 94.255. O=C(NCCOc1ccc(F)cc1)c1cccs1 [CBK057930] was tested, and the “% of control remaining” value was 88.9143.

— paper PMC12040169 (PLOS Biology, 2025)
